From PubChem BioAssay AID686970 (National Center for Advancing Translational Sciences (NCATS), 2013)
The whole screen tested about 360,000 compounds, of which about 6,000 (1.7%) were called active. Inconclusive means that the source gave no clear call. Such entries were picked first, then a sample of the others. The call rests on the fitted dose curve; in most records, active means well fitted cell-killing curve with a large enough effect; inconclusive means small, poorly fitted or top-dose-only effect, or effect the other way; inactive means flat fitted curve, though single readings scatter. Potencies of inconclusive entries are left out as doubtful fits.

Assay: qHTS for induction of synthetic lethality in tumor cells producing 2HG: qHTS for the HT-1080-NT fibrosarcoma cell line;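 further: NT is the 2HG producing partner of a matched IDH1 knockdown line; nearly all actives have a fitted effect of over 55% in size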;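 on activity, negative = less viability: 0% = DMSO-treated cells and -100% = media-only wells without cells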
Conditions: HT-1080-NT fibrosarcoma viability, CellTiter-Glo ATP luminescence, 48 h; activity, negative = less viability: at 46.1 µM (top of the series) unless noted
Outline: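 HT-1080-NT fibrosarcoma cells (2HG-overproducing), 750 cells/well in RPMI with 5% FBS, dosed after 2 h and incubated 48 h at 37C. CellTiter-Glo luminescence normalized to DMSO and no-cell wells; concentration-response curves fitted and classed.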
Potency means the concentration at half of the fitted maximal effect; tags describe the fitted curve by direction and shape.

Structure (SMILES)	Potency	activity, negative = less viability
Cn1c2ccccc2n2c(=O)c(=O)n(CC(=O)c3ccc(F)cc3)nc12	inconclusive [cytotoxic, full curve, poor fit]	–
Oc1ccc(NCc2ccccc2OCc2ccccc2F)cc1	inconclusive [cytotoxic, single point]	–
CC(/C=N/NC(=O)c1cc(-c2ccc(C)s2)[nH]n1)=C\c1ccccc1	active: 5.17 µM	–
Cc1ccc(/C=C/C(=O)Nc2ccc([N+](=O)[O-])c(NC(=O)/C=C/c3ccc(C)o3)c2)o1	inconclusive [cytotoxic, single point]	–
FC(F)(F)c1ccc(CN2C[C@@H]3C(c4ccc(Cl)nc4)C4(c5cccnc5)CC3(C4)[C@H]2c2ccccc2)cc1 (stereo not given in full)	inconclusive [cytotoxic, single point]	–
CCOC(=O)C1CCCCN1Cc1cccc(F)c1 (stereo not given)	inconclusive [rising, partial curve, poor fit]	–
Cc1n[nH]c(C)c1S(=O)(=O)N1CCCC(C(=O)NC2CCCc3ccccc32)C1 (stereo not given)	inactive	–
CC(C)(C)c1cc(OC(=O)C2CCCC2)ccc1O	inconclusive [cytotoxic, single point]	–
OC[C@@H]1[C@@H](c2ccc(Cl)cc2)C(c2ccc(F)cc2)=NN1c1ccccc1	inconclusive [cytotoxic, single point]	–
Cc1ccccc1CN(C)CCS(=O)(=O)c1cc(Cl)ccc1Cl	active: 16.4 µM	–
O=c1c2nccnc2[nH]c(=S)n1Cc1ccccc1	inconclusive [rising, single point]	–
Cc1ccc2nc(N3C(=O)CNC3=S)sc2c1	inconclusive [cytotoxic, partial curve]	–
CCN(C[C@H]1N[C@@](Cc2ccccc2)(C(=O)OC)[C@H]2C(=O)N(Cc3ccccc3)C(=O)[C@@H]12)C(=O)Nc1ccc(C)cc1	inconclusive [cytotoxic, partial curve]	–
CN(C)NC(=O)c1ccc([N+](=O)[O-])s1	inconclusive [cytotoxic, single point]	–
COc1ccc(C(O)c2ncc(-c3cccc(F)c3)[nH]2)cc1F (stereo not given)	inactive	–
CCn1nc(C)c(C(=O)Nc2cc(Oc3ccc(Cl)cc3)cc([N+](=O)[O-])c2)c1C	inconclusive [cytotoxic, single point]	–
CCSc1ccc([C@@H]2[C@H]3C(=O)N(C)C(=O)[C@H]3[C@]3(C(=O)OC)CCCCN23)cc1	inactive	–
CC1CCCCN1S(=O)(=O)c1ccc(C(=O)Nc2nnc(-c3cccs3)o2)cc1 (stereo not given)	inconclusive [cytotoxic, partial curve]	–
Cc1cc(C)n(-c2cc(C(C)(C)C)nc3c(-c4ccc(Cl)cc4)cnn23)n1	inconclusive [cytotoxic, single point]	–
N#CCCN(Cc1ccccc1)C(CCc1ccccc1)C(=O)NC1CCCCC1 (stereo not given)	inconclusive [cytotoxic, single point]	–
COCCCn1c(Cc2ccccc2)nnc1SCC(=O)N1CCCCC1	inconclusive [cytotoxic, full curve]	–
Cc1c(Cl)cccc1NC(=O)CN1CCC(C(O)(c2ccccc2)c2ccccc2)CC1	inconclusive [cytotoxic, single point]	–
O=C(CN1C(=O)C2CC=CCC2C1=O)Nc1ccc(Br)cc1 (stereo not given)	inactive	–
CC(=O)C1C(C)CC2C3CCC4CC(=O)CCC4(C)C3CCC21C (stereo not given)	inactive	–

Structure (SMILES)	Potency	activity, negative = less viability
COc1ccccc1CNC(=O)c1cc(C2CC2)nc2c1cnn2C(C)C	inactive	–
CCOC(=O)CCCCC(=O)c1[nH]c(=O)[nH]c1CSc1nc2ccccc2[nH]1	inconclusive [cytotoxic, single point]	–
COc1cccc(CNC(=O)c2cc3oc4ccccc4c3n2C)c1OC	–	inconclusive: -3% [cytotoxic]
O=C(COC(=O)c1ccccc1)Nc1cccc(S(=O)(=O)N2CCCCC2)c1	inactive	–
Cc1ccc(NC(=O)c2nc(S(=O)(=O)Cc3ccccc3C)ncc2Cl)cc1C	inconclusive [cytotoxic, single point]	–
COc1ccc(N=c2cc(-c3ccc(O)cc3)oc3ccccc23)cc1	active: 14.6 µM	–
COc1cccc(NC(=O)c2nnn(CC(=O)Nc3cc(C)cc(C)c3)c2N)c1	inconclusive [cytotoxic, single point]	–
Cc1cc(C)n2nc(SCC(=O)N(C)c3ccccc3)nc2n1	inactive	–
COc1ccc(C(=O)/C=C/Nc2c(C)n(C)n(-c3ccccc3)c2=O)cc1OC	inconclusive [cytotoxic, partial curve]	–
CCOC(=O)c1[nH]c2ccc(OC)cc2c1NC(=O)CN1CCc2ccccc2C1	inconclusive [cytotoxic, single point]	–
Cc1cc(=O)c(C(=O)Nc2cccc(C(=O)NC3CC3)c2)nn1-c1ccccc1	inactive	–
COc1ccc(Nc2nc3cc(-c4sccc4C)sc3c(=O)n2C)cc1OC	inconclusive [cytotoxic, full curve, poor fit]	–
Cc1csc(NC(=O)CN2C(=O)COc3ccc(Cl)cc32)n1	inactive	–
Cc1ccc(S(=O)(=O)N(CC(=O)Nc2cccc(C)c2C)C(=O)N2CCN(C)CC2)cc1	inactive	–
CCOc1ccc(-c2nnc(-c3ccc(OC)cc3)o2)cc1	inconclusive [rising, partial curve]	–
OC(COc1ccc(Cl)cc1)CN1C2=NCCCN2c2ccccc21 (stereo not given)	inconclusive [cytotoxic, single point]	–
Cc1nc(SCC(=O)Nc2ccc(F)cc2)c2oc3ccccc3c2n1	–	inconclusive: 38.5%
Nc1cc([N+](=O)[O-])cc2oc(-c3ccccc3)cc12	inactive	–
Cc1ccc(Cl)c(NC(=O)COC(=O)c2ccccc2C(=O)c2ccc(Cl)c([N+](=O)[O-])c2)c1Cl	inconclusive [cytotoxic, single point]	–
Cc1cc(Cl)n2c(nc3cc(F)c(F)cc32)c1C#N	active: 5.8 µM	–
C=CCOc1c(OC)cc(/C=N/Nc2cccc(C(=O)O)c2)c(Br)c1Br	inconclusive [cytotoxic, partial curve]	–
CCOc1cc(CNc2ccccc2)cc(Br)c1OCC(=O)NC(C)(C)C	inconclusive [cytotoxic, single point]	–
Cc1ccc(Nc2cc(C)nn2-c2nc(C)cc(C)n2)cc1	inconclusive [cytotoxic, single point]	–
CN(Cc1ccccc1)C1(CNC(=O)CCC(F)(F)F)Cc2ccccc2C1	inactive	–

Structure (SMILES)	Potency	activity, negative = less viability
COc1ccc(-c2cc3nc(C)cc(N)n3n2)cc1	inconclusive [cytotoxic, single point]	–
CN(c1ccccc1)S(=O)(=O)c1ccc(C(=O)OCC(=O)NC(N)=O)cc1	inactive	–
[O-][n+]1ccccc1SC/C=C/c1ccccc1	inconclusive [rising, single point]	–
NC(=S)N/N=C/c1cn(-c2ccccc2)nc1-c1cccnc1	inconclusive [cytotoxic, single point]	–
O=C(Nn1c(C2CCCCC2)nc2ccccc2c1=O)c1ccc([N+](=O)[O-])cc1	inconclusive [cytotoxic, single point]	–
CCn1c2ccccc2c2cc(/C=N/NC(=O)c3ccccc3C)ccc21	active: 14.6 µM	–
O=C(CCCN1C(=O)S/C(=C\c2ccccc2)C1=O)NNC(=O)c1ccccc1O	inconclusive [cytotoxic, single point]	–
OC(c1ccc(Cl)cc1)c1ncc(-c2ccc(Cl)cc2)[nH]1 (stereo not given)	inconclusive [cytotoxic, partial curve]	–
Cc1ccc2cc(NC(=O)C3(C)CCN3CC(C)C)ccc2n1 (stereo not given)	–	inconclusive: 18.2%
CC[C@@H](C)[C@H](CN[C@H](CNC)[C@@H](C)O)NCCc1ccc(OC)cc1	inconclusive [cytotoxic, single point]	–
O=C(N/N=C/c1ccc2cccnc2c1)c1nc2ccccc2c(=O)[nH]1	inconclusive [rising, partial curve]	–
N#CN1C2CCC1CC(O)(c1ccccc1)C2 (stereo not given)	inconclusive [rising, single point]	–
CCCCCNC(=O)C(c1ccc(OC)cc1)n1c(=O)c(-c2ccccc2)nc2ccccc21 (stereo not given)	inactive	–
O=C(O)CCCCCN1C(=O)/C(=C\c2ccc(-c3ccc(Cl)cc3)o2)SC1=S	inactive	–
O=C(Nc1cccc2ccccc12)NC(Cc1ccccc1)C(=O)O (stereo not given)	inactive	–
COc1ccc(CNC(=O)c2ccc3c(=O)n4c(nc3c2)CCCCC4)cc1OC	inconclusive [cytotoxic, single point]	–
COc1ccc(CC(N)c2csc(NC(=O)Nc3cccc(C(F)(F)F)c3)n2)cc1 (stereo not given)	active: 18.4 µM	–
COc1ccccc1NC(=S)Nc1cccc2cnccc12	inconclusive [cytotoxic, single point]	–
COc1cc(NC(=O)C2(C)CCN2C(C)C)cc(OC)c1OC (stereo not given)	inactive	–
O=c1nc(Nc2ccc(OCc3ccccc3)cc2)sc2ncccc12	–	inconclusive: -5.52% [cytotoxic]
O=C1c2ccccc2CC1Sc1nnc(-c2ccccn2)o1 (stereo not given)	inconclusive [cytotoxic, partial curve, poor fit]	–
CCn1c(-c2ccccc2O)n[nH]c1=S	inconclusive [cytotoxic, single point]	–
